{"source": "PubChem BioAssay AID894", "about": "(National Center for Advancing Translational Sciences (NCATS), 2007)", "note": "The whole screen tested about 150,000 compounds, of which about 6,500 (4.3%) were called active. The shares of active, inactive and inconclusive entries below differ from those in the screen. The call rests on the fitted dose curve; in most records, active means well fitted inhibition curve with a large enough effect (not every such curve was filed as active); inconclusive means small, poorly fitted or top-dose-only effect, or another doubt; inactive means no such curve, though single readings can be large or run the other way. Potencies of inconclusive entries are left out as doubtful fits. On the % scale 0 is the no-effect control and ±100 the full control effect; potency means the concentration at half of the fitted maximal effect; tags describe the fitted curve by direction and shape."}
{"target": "15-hydroxyprostaglandin dehydrogenase [NAD(+)] (Homo sapiens) (UniProt P15428)", "sequence (P15428 whole entry, looked up)": "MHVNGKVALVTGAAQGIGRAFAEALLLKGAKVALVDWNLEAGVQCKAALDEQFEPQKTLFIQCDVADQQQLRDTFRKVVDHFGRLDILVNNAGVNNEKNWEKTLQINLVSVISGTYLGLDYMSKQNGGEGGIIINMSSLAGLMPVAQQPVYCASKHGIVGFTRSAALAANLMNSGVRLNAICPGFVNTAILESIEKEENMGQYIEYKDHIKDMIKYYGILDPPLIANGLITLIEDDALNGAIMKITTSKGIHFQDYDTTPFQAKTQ", "test": "qHTS Assay for Inhibitors of HPGD (15-Hydroxyprostaglandin Dehydrogenase)", "conditions": "purified HPGD, NADH fluorescence kinetic, PGE2 substrate; activity change, negative = inhibition: hits give low values", "method_in_brief": "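20 nM HPGD preincubated 15 min at room temperature with compound in 50 mM Tris-HCl pH 8, 0.01% Tween 20. Started with 1 mM NAD+ and 30 uM prostaglandin E2; NADH fluorescence (360/450 nm) read 5 times over 30-s intervals, last minus first.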"}
{"smiles": "O=C(Nc1ccccc1)N1CC=C(c2ccc(F)cc2)CC1", "Potency": "inconclusive [inhibitor, partial curve]"}
{"smiles": "Cc1[nH]n(-c2cccc3ccccc23)c(=O)c1/C=N/c1sc2c(c1C#N)CCC2", "Potency": "inconclusive [inhibitor, partial curve]"}
{"smiles": "O=C(COc1ncnc2sccc12)NC1CCCc2ccccc21", "note": "(stereo not given)", "activity change, negative = inhibition": "inactive: -8.44%"}
{"smiles": "CC1=CC(C#N)(C#N)C(C#N)(C#N)C(c2ccccc2)N1", "note": "(stereo not given)", "Potency": "inconclusive [inhibitor, partial curve]"}
{"smiles": "O=C(Nc1sc2c(c1C(=O)NC1CCCCC1)CCC2)c1ccco1", "Potency": "inconclusive [inhibitor, partial curve]"}
{"smiles": "COc1ccc(C2C(C#N)=C(N)Oc3cc(C)[nH]c(=O)c32)c(OC)c1OC", "note": "(stereo not given)", "activity change, negative = inhibition": "inactive: -0.34%"}
{"smiles": "CN1CCN(C(=O)c2sc(=S)n(-c3ccccc3)c2N)CC1", "Potency": "active: 7.94 µM"}
{"smiles": "C/C(=N/N=C/c1ccc(N(C)C)cc1)c1ccccc1", "activity change, negative = inhibition": "inactive: -15.5%"}
{"smiles": "COc1ccc(CNC(=O)COC(=O)CCCOc2ccc(Cl)cc2Cl)cc1OC", "Potency": "inconclusive [inhibitor, partial curve, poor fit]"}
{"smiles": "Cc1c(C)c2ccc(OS(C)(=O)=O)c(C)c2oc1=O", "activity change, negative = inhibition": "inactive: -15.5%"}
{"smiles": "O=C(CCn1cnc(-c2ccccc2)c1-c1ccccc1)N/N=C/c1ccc(O)cc1", "activity change, negative = inhibition": "inactive: -14.8%"}
{"smiles": "Cn1nc(-c2ccc(Cl)cc2)c2cc(C(=O)N3CCN(C(=O)c4ccco4)CC3)sc21", "Potency": "inconclusive [inhibitor, partial curve]"}
{"smiles": "Cc1ccc(CNC(=O)COC(=O)c2ccc(Br)cc2)cc1", "activity change, negative = inhibition": "inactive: -10.6%"}
{"smiles": "CC(=O)N[C@H](C(=O)O)C(C)(C)SN=O", "activity change, negative = inhibition": "inactive: 5.07%"}
{"smiles": "Cc1ccc(NC(=O)C(=O)NCCOc2ccc(Cl)cc2)c(C)c1", "activity change, negative = inhibition": "inactive: -7.89%"}
{"smiles": "N=c1c(C(=O)NCc2ccc3c(c2)OCO3)cc2c(=O)n3ccccc3nc2n1Cc1cccnc1", "Potency": "inconclusive [inhibitor, single point]"}
{"smiles": "COC(=O)c1cc2ccsc2n1CC(=O)N1CCCc2ccccc21", "Potency": "inconclusive [inhibitor, partial curve]"}
{"smiles": "Cc1ccc(C2CC(=O)Oc3ccc(O)cc32)cc1", "note": "(stereo not given)", "Potency": "inconclusive [inhibitor, single point]"}
{"smiles": "COc1ccc(-c2c(C)oc3c(CN4CCN(CCO)CC4)c(O)ccc3c2=O)cc1OC", "Potency": "inconclusive [inhibitor, partial curve]"}
{"smiles": "CCOc1ccc(C2C(C#N)=C(N)SC(N)=C2C#N)cc1OCC", "Potency": "active: 22.4 µM"}
